This is one part of the list. Further columns of the screen follow, without active or inactive calls.
Columns and labels:
Assay in all cases: Primary Screen for Target Class Profiling of Small Molecule Inhibitors of Methyltransferases
[1] = target: Glycine N-methyltransferase (Homo sapiens) (UniProt Q14749); conditions: purified enzyme, MTase-Glo SAH luminescence; measured here: GNMT inhibition; at 40 µM; stronger effect = lower value
How it was run: (§1)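 Each enzyme was assayed with SAM and its substrate. SAH formation detected by MTase-Glo luminescence; single-point 40 uM screen[…].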

[2] = target: Guanidinoacetate N-methyltransferase (Homo sapiens) (UniProt Q14353); conditions: purified enzyme, MTase-Glo SAH luminescence; measured here: GAMT inhibition; at 40 µM; stronger effect = lower value
How it was run: as §1

[3] = target: Histamine N-methyltransferase (Homo sapiens) (UniProt P50135); conditions: purified enzyme, MTase-Glo SAH luminescence; measured here: HNMT inhibition; at 40 µM; stronger effect = lower value
How it was run: as §1

[4] = target: Nicotinamide N-methyltransferase (Homo sapiens) (UniProt P40261); conditions: purified enzyme, MTase-Glo SAH luminescence; measured here: NNMT inhibition; at 40 µM; stronger effect = lower value
How it was run: as §1

[5] = target: Phenylethanolamine N-methyltransferase (Homo sapiens) (UniProt P11086); conditions: purified enzyme, MTase-Glo SAH luminescence; measured here: PNMT inhibition; at 40 µM; stronger effect = lower value
How it was run: as §1
On the % scale 0 is the no-effect control and ±100 the full control effect.

Row | Compound | activity change, negative = inhibition [1] | activity change, negative = inhibition [2] | activity change, negative = inhibition [3] | activity change, negative = inhibition [4] | activity change, negative = inhibition [5]
1 | COc1cccc(N2C(=O)c3cc4oc(C)cc4n3CC2(C)C(=O)NC2CCCCCC2)c1 (stereo unspecified) | -4.04% | 4.26% | -4.36% | 3.07% | -3.14%
2 | O=C(c1ccccc1Cl)N1CCCC(C(=O)N2CCC(c3ccccc3)CC2)C1 (stereo unspecified) | -6.22% | 0.321% | -0.89% | -14.4% | 3.42%
3 | O=C(Cn1ccc2cc(S(=O)(=O)N3CCCCC3)ccc21)NC1CCCCC1 | 6.6% | 0% | 1.56% | 5.06% | -0.199%
4 | CCO[C@H]1CN(C(=O)Cc2ccccc2OCc2ccccc2)C[C@@H]1O | -5.32% | -6.78% | -3.26% | -6.65% | -5.01%
5 | CN(CC(=O)N1CCC(Cc2ccccc2)CC1)S(=O)(=O)c1ccc2c(c1)CCC(=O)N2 | -2.85% | 1.39% | 6.3% | 5.12% | 1.84%
6 | CCC(C)/C=C(C)/C=C/C1=CC2=C(Cl)C(=O)C(C)(OC(C)=O)C(=O)C2=CN1C1CCCCN(C(CCC(N)=O)C(=O)O)C1=O (stereo unspecified) | -3.72% | -7.93% | 4.66% | -19.6% | -2.69%
7 | CNC(=O)[C@H]1C[C@]2(CCCCNC2=O)N(C(=O)c2cccc(C#N)c2)[C@H]1c1ccco1 | -8.04% | -13.3% | -5.54% | -16.4% | -23.3%
8 | CC1(C(=O)NC2CCCCCCC2)Cn2c(cc3sccc32)C(=O)N1Cc1cccs1 (stereo unspecified) | 3.22% | 0.442% | 7.7% | -12.1% | 3.54%
9 | CCCn1c(=O)c2ccccc2n2c(SCC(=O)Nc3cc(C)cc(C)c3)nnc12 | 4.23% | 0.956% | 9.87% | 0.753% | 2.83%
10 | COc1ccc(N2CC3CCC(C2)N3C(=O)NC(C)C)cc1 | -0.923% | -0.074% | 0.446% | 0.479% | -1.81%
11 | CNC(=O)c1cc(C)nc2onc(C3CCN(C(=O)c4ccccc4Cl)C3)c12 (stereo unspecified) | -6.87% | -3.69% | -1.44% | -13.6% | -5.91%
12 | CC(C)CCN1C(=O)c2ccccc2CC1(C)C(=O)NCc1ccc(Cl)cc1 (stereo unspecified) | 13.3% | 0% | 10.6% | 3.89% | 5.15%
13 | COc1ccc(-c2cc3n(n2)CC(C)(C(=O)NCc2ccccc2)N(c2ccc(C)cc2C)C3=O)cc1 (stereo unspecified) | 8.7% | 0% | 9.83% | 10.2% | 2.95%
14 | CCOc1ccc(CN2C(=O)c3cc4ccccc4n3CC2(C)C(=O)NCCC(C)C)cc1OC (stereo unspecified) | -4.04% | 2.93% | -2.77% | -9.99% | -4.28%
15 | COc1ccc(-c2cc3n(n2)CC(C)(C(=O)NCc2ccccc2)N(c2cccc(C)c2C)C3=O)cc1 (stereo unspecified) | -0.289% | 3.99% | 2.37% | 4.28% | -2.82%
16 | CC(C)(C)c1cc2n(n1)CC(C)(C(=O)NC1CCCCCC1)N(Cc1ccccc1)C2=O (stereo unspecified) | 2.98% | 0.391% | 1.82% | -1.47% | -0.061%
17 | O=C(O)Cc1cn(C2OCC(O)C(O)C2O[C@@H]2O[C@H](CO)[C@@H](O)[C@H](O)[C@H]2O)c2ccccc12 (stereo partly specified) | 0% | 8.61% | 6.43% | -5.89% | 7.94%
18 | COc1ccccc1CNC(=O)CCCc1nnc2n3nc(-c4ccccc4)nc3c3ccccc3n12 | -11.7% | 0% | 1.8% | 3.79% | -4.66%
19 | CCOCC(O)Cn1cnc(-c2ccccc2)c1-c1cccc(OC)c1F (stereo unspecified) | -3.51% | 2.04% | 1.34% | -8.08% | 1.05%
20 | O=C(NCCN1CCCCC1)c1cc2n(n1)CCCN(Cc1ccc(Cl)cc1)C2=O | -0.066% | 0% | -5.04% | 1.79% | 6.24%
21 | CN(C1CCCCC1)S(=O)(=O)C1CCS(=O)(=O)C1 (stereo unspecified) | 0.875% | -3.55% | 3.38% | 0.381% | 1.39%
22 | Cn1c(=O)c2ccc(C(=O)NC3CCCC3)cc2n2c(SCC(=O)Nc3cccc(F)c3)nnc12 | -1.9% | 0% | 4.14% | -0.307% | 8.05%
23 | CCCn1c(=O)c2ccc(C(=O)NCC(C)C)cc2n2c(=O)n(CC(=O)NC3CCCCC3)nc12 | 3.54% | 0.324% | 6.6% | 0.624% | 3.56%
24 | CN[C@H](CC(=O)O)C(=O)O | -1.19% | 6.9% | 0.317% | -5.37% | 4.72%
25 | C[S+](=O)([O-])NCCNC(=O)c1cccc(-c2ccc(C(F)(F)F)cc2)c1 | -1.97% | -1.24% | 0.17% | -1.11% | 4.57%
26 | O=C(N[C@@H]1CN(C(=O)c2nccc3ccccc23)C[C@H]1CO)c1ccccc1 | -0.131% | 1.5% | 2.94% | -3.53% | -3.77%
27 | CCCn1c(=O)c2cc(F)ccc2n2c(SCc3cccc(F)c3)nnc12 | -7.8% | 0.773% | 6.85% | -4.72% | 6.47%
28 | C=C(NC(=O)C(=C)NC(=O)c1csc(C2=NC3c4csc(n4)C4NC(=O)c5csc(n5)C(C(C)(O)C(C)O)NC(=O)C5CSC(=N5)C(=CC)NC(=O)C(C(C)O)NC(=O)c5csc(n5)C3(CC2)NC(=O)C(C)NC(=O)C(=C)NC(=O)C(C)NC(=O)C(C(C)CC)NC2C=Cc3c(C(C)O)cc(nc3C2O)C(=O)OC4C)n1)C(N)=O (stereo unspecified) | – | -12.8% | – | 2.43% | 8.6%
29 | NC(=O)c1cnc(N[C@@H]2CCCC[C@@H]2N)nc1Nc1cccc(-n2nccn2)c1 | – | 6.8% | – | -23.9% | -12%

— PubChem BioAssay AID1745853 (National Center for Advancing Translational Sciences (NCATS), 2022)
